The supplement of paper PMC10126150
Sequences with one replicate were seen in a single cluster, so their values are uncertain.

Test system: ATP
Assay: switch fluorescence ratio, 500 uM ATP over buffer (Cy3 cluster intensity, sum of 5 cycles each) (fold (ratio)); higher = stronger signal-on switching upon ATP binding; sequences stand for … in TCGTCGGCAGCGTCAGATGTGTATAAGAGACAGTTTTTTTTTTTTTTTTTTTTTTTTT…TC
Conditions: aptamer strand: ATP DNA aptamer (quencher-CACCTGGGGGAGTATTGCGGAGGAAGG + anchor), 100 nM annealed; ATP concentration: 500 uM; one replicate
Method in brief: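 The fluorescence ratio divides summed target-cycle Cy3 intensity by summed buffer-cycle Cy3 intensity for each cluster and is averaged per switch-domain sequence. Cy3-labelled switching-strand clusters on a modified Illumina MiSeq flow-cell were annealed to 100 nM quencher-labelled ATP aptamer, then imaged in selection buffer and again after 15 min with 500 uM ATP at 22 °C. Five such cycles were run, with NaOH stripping and re-annealing between them, and clusters outside 100-1000 RFU were excluded.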
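Also: ATP exposure 15 min at 22 °C before imaging.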

Sequence	switch fluorescence ratio
CATGTATCAG	1
CAAGACCCCA	0.995
CGTAGGTTGG	1.02
TACCGGGCAA	1.64
TTTGTTGTC	0.941
CGAGCGGATG	0.988
CCGTCATAAT	1.33
AGTGCAGGGG	1.07
GATTTAGGCG	1.01
GCAACTATGG	1.02
ATACGTCTGC	0.988
TCTCTTGATT	0.94
CTGATCGACC	1.21
GAGGCTCAGG	0.992
CGGGGTGACC	0.985
TACGATGAAT	1
TCGCCTGCCA	1.08
AATATGACAA	1.01
CTGCTTTCTA	0.983
TTTTGAGTGC	1.13
TAGACACTG	1.11
TGGCGCAATT	2.94
CCTAATATGC	1.32
AATTGCTCAA	1.03
TGCGACGCGA	1.14
TCAGGCTTTA	1.05

Sequence	switch fluorescence ratio
GGGCGCCCGT	1
GAATGTCAGG	0.985
ACTGTTAAC	1.09
AACCCGGTGG	1.05
CTGCTGGCTG	1.03
CATTGGGCTG	0.976
TGGGGGAGAA	1.01
AATGATTTGG	1.01
ACACGTGTTC	0.985
ACTGTTGCGG	0.978
TAAGGTGCAT	1.15
ACTGTTTCG	1.06
GCAAGTTAAA	1.04
ATATGCTGTT	1.03
AGTTCTAACC	1
GTCGTGTGTC	1.05
GCGTTATCGG	1.05
AATCCACAGC	1.15
GAATAGCCCG	0.964
GGTGTGGAGT	1.23
TAAGCCTGTG	1.01
AACACCTAAC	1.4
ATGTGTCTCT	0.989
TCGTAATTCT	1.18
AAAGTGACCG	1.06
ATGAACTGC	0.978

Sequence	switch fluorescence ratio
AAGACGTCAT	1.03
CGGTAACGGT	1.02
GTTGAAATCA	0.981
CAGTAACCTG	1.03
TGGTACGCC	1.09
TACGATCACG	1.13
GGTAGAGTAT	1.03
CCAGGTTTCT	1.05
GGGTCGCCAA	0.98
GAACTAATAG	0.996
AAAGAGGGA	0.987
CTAGGTATGC	1.03
TTGTTTCGGA	1.02
GCCCGTGGGG	0.992
TACGAATGGA	1.01
TTCGAGACCC	1
AGTTTAGTCA	1.01
TAAGGGGGA	0.975
TTGCAGGAAG	0.98
ACATCAAAGA	0.996
AATGATCAAC	1.01
ACTTCGTTGC	1.3
ATAGTCGCTC	0.937
CTGTGTTTCC	1.04
GAAACAGGGT	0.972
GATGCCGCT	0.982

Sequence	switch fluorescence ratio
AGATTACGTA	1.11
CCTTTTAATA	1.07
CCAGGGTATT	1.01
ACGCTATGCC	1.19
ATTAATCCTA	1.01
GCCTTATCCC	0.992
ATGGATACGC	1.13
GTCTTAGACT	0.987
GCTCGCTCGC	1.3
GGTAGTACGT	0.983
AGCCTTTTCT	1.01
ACGGACAAGG	1.08
GAATCTCGGC	1.06
TCGAGTTATA	0.998
ACTGGAATTA	0.997
CACTGGGGCG	1.03
GATTGCGGGT	1.03
TTCTGGGAT	1.01
TAGTTCGAAA	0.988
GGTCTTGCCG	0.964
TTGCGTCATG	1
TGGAACCCCC	1.07
TTCGGAAACA	1
GGCTGGACTA	1
ACGTTGGGTT	0.979
GGCGATATTA	0.998

Sequence	switch fluorescence ratio
CAAATAAAG	1.03
CAGCCTGGAA	1.07
AGGCCTGAAG	0.992
CGTCAATATG	1.68
ATCAAATTGA	0.992
GTGACTCATT	0.996
TAATGGATG	1.03
TTGGGAGTGC	0.988
TAGATTACG	1.01
CGGCTTTTCC	1
CTGGGGAAGG	0.994
CTGACCGGAT	1.05
CCTTAGAATG	1.03
CAACTGTCGA	1.07
ATGACTAGTT	0.939
AGATGCTACT	0.985
ATGTAGGTGG	0.973
GATACAACAT	1.02
TTCCAGACGC	1.64
ATTATTAGTG	1.01
GGCAATTTTA	0.984
CTGAGACGAA	0.954
TATTAGTCCT	0.999
GCGATTGAAA	1.08
GGAGGCCACG	1
GGGACAGCAC	1.25

Sequence	switch fluorescence ratio
CGCAGCAGG	2.96
TGACGGCGGC	1.07
GACGTTTTCT	1.14
GTAAGTACTT	1.03
TCGACGCACC	3.82
TGTAGGGGCG	1.03
TACTTAAG	1
TGCCGTTGAT	1.01
CGTTTAAAAA	0.872
ATTTATTGT	1.02
TTATTTCTG	1.06
AGACTATGGT	1.01
GGATCTATAG	0.99
GCCGGTAAA	1
TAGAGTCAGA	1.04
TAACATTCGA	1
CGATAGCATG	1.07
GCGCTTCGTG	0.998
GTTTGGTCAA	1.23
CATTAGAGGA	0.998
CGCGTCACGG	1.04
AAGCAGGACA	1.08
GCCAGAACTA	1.02
TGCGCGAAGG	0.999
CTAGCCCTAC	1.6
ATAGAAAGCG	0.971

Sequence	switch fluorescence ratio
GCACGTTCAC	1.46
GATTCTACTT	1.06
ATATGCGTTG	0.987
GGTAAAAAG	0.955
GAGCGCCA	0.994
CCAGACAGTT	0.982
GAACCGACGG	1.08
TAGTGTGTGT	1.03
AGGATGTTAG	1
TTTCGACGCG	0.996
CGCGTCTTCG	0.937
AAATATGG	1
GGCAAAACCT	1.82
GTGGTACCAC	1.04
ATAGCCTCGA	0.962
CTCGCATTCT	3.88
TCATCTTAGT	1.01
CGCACGTGCT	0.986
AATGCCTCCA	1
TTTTCCCCT	1.03
CACGTATTGT	1.2
GCACGGCTCT	0.985
GTCATCTTG	0.951
TCCTTAAATG	0.981
ATTCTGGGGC	0.989
GTGATAG	1.41

Sequence	switch fluorescence ratio
AGGTAAGGCA	1.01
AATACGATGG	1.07
ATTATAATTG	0.981
TTTCCATGGG	1.02
GTTTAGGTTG	1
CTAAAAATGA	0.972
TATAATTGCT	1.02
CTTGCGTGCT	0.986
GGTAGCGCAA	1.93
TCGCAGTTCG	1.13
TCAGACGGAC	1.52
TATTTCCAAA	0.996
CACGAGGATA	0.989
TACTAAAGCA	1.1
TCTCGCAGGA	1.02
CTATTGCGAA	1.04
CCATAGTCTG	1.08
CTTCTCACTT	0.962
GTATTAACGT	0.993
